Test: PEG release rate and stability, biphalin and its conjugates
Assay type: physicochemical

Substance: (C2-20K)2-biphalin [Di-C2-PEG2-FMOC-NHS-20K-biphalin]
- PEG Release rate (after 4 h at 37° C. in PBS, pH 7.2): 50% after 4 h

Substance: (CAC-20K)2-biphalin [Di-CAC-PEG2-FMOC-NHS-20K-biphalin]
- PEG Release rate (after 23 h at 37° C. in PBS, pH 7.2): 15% after 23 h

Substance: (SBC-30K)2-biphalin [Di-mPEG-SBC-30K-biphalin]
- PEG Release rate (after 50 min at 37° C. in 200 mM Na-phosphate, pH 7.4): 55% after 50 min

— US20110166063A1 (priority 2008, published 2011)
